Measurements as given in article PMC4336329 (PLoS ONE, 2015).
About 14,000 (4.5%) of roughly 310,000 compounds showed an effect of 50% or more. Effects have a minus sign here. The list shows a part of the results.

Target: human ether-à-go-go-related gene (hERG) potassium channel (human, UniProt Q12809)
Test: primary screen, population patch clamp on CHO cells stably expressing hERG
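Note: peak tail current of the secondary pulse compared with the same well before compound.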

Chain of human ether-à-go-go-related gene (hERG) potassium channel (Q12809 whole entry, looked up): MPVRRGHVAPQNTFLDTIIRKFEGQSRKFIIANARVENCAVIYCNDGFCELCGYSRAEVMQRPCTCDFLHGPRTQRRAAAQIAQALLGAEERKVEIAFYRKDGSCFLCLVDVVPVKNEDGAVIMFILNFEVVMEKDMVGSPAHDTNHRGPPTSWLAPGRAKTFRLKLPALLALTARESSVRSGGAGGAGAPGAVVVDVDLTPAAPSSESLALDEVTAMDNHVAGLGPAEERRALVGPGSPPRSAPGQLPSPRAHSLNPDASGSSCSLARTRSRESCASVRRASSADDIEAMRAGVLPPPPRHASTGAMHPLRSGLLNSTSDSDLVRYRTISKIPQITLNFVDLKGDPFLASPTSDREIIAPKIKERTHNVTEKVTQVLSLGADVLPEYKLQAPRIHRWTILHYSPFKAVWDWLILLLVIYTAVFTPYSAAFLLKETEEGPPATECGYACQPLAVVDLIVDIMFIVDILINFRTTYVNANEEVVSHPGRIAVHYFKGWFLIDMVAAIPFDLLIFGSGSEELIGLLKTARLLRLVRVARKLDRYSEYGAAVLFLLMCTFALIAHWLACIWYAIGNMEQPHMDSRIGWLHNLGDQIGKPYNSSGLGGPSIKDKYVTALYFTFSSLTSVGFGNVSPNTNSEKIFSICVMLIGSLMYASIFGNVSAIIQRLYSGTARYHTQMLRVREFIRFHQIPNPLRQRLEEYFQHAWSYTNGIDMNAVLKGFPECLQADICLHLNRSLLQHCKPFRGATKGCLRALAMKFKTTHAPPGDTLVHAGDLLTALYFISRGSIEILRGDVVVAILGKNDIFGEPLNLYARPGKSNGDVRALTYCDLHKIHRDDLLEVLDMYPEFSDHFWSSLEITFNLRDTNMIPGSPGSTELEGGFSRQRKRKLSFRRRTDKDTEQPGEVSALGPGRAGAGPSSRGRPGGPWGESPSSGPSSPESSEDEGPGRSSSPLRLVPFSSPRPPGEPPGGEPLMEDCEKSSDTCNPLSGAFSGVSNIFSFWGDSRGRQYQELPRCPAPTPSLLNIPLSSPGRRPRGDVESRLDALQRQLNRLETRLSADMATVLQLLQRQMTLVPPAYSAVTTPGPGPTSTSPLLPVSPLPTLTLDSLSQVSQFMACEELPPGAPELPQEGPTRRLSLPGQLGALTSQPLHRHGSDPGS

Structure (SMILES)	hERG current change (%, negative = inhibition) at 10uM [%]
O=C(NCCCl)C1Cc2c(ccc3ccccc23)O1 (centres unmarked)	7.97
CCSc1nnc(NC(=O)C2CCCCC2C(=O)O)s1 (centres unmarked)	7.05
O=S1(=O)N=C(SCCO)c2ccccc21	2.57
COc1cccc(CNC(=O)c2cccc(NC(=O)C3=C(C)OCCS3)c2)c1	-24.1
CCOc1ccc(NC(=O)c2cccnc2SC)cc1	21
Cc1nnsc1C(=O)N/N=C/c1ccc(OC(F)(F)F)cc1	19.9
O=C(CCC1CCCCC1)Nc1c2c(nn1-c1ccc(F)cc1)CS(=O)C2 (centres unmarked)	-12.5
Cc1cccc(NC(=O)CN2CCOCC2)c1C	13.9
O=C(O)c1ccc(COCC(F)(F)C(F)F)o1	16
COCCN1C(=O)c2[nH]nc(-c3ccccc3O)c2C1c1ccc(OC)cc1 (centres unmarked)	-38.5
COc1ccc2c(c1)c(C(=O)N/N=C/c1ccc(Cl)cc1)c(C)n2C	-58.6
CN(C)S(=O)(=O)c1cccc(C(=O)Nc2ccc(N3CCOCC3)cc2)c1.Cl	0.0464
C=CCSc1nnc2n(CCc3ccccc3)c(=O)c3c4c(sc3n12)COC(C)(C)C4	4.1
COc1ccc(C2C(C(C)=O)=C(O)C(=O)N2c2nccs2)cc1OC (centres unmarked)	-10.5
CCCCNC(=S)N=Nc1c(O)n(Cc2ccccc2)c2ccccc12	-12
CCOC(=O)c1sc(N/N=C/c2ccc(N(C)C)cc2)nc1C	13.9
COc1cc2c(cc1NC(=O)C(C)OC(=O)c1ccc(S(=O)(=O)Nc3ccccc3Cl)cc1)oc1ccccc12 (centres unmarked)	21.8
CC(=O)N1CCOc2ccc(S(=O)(=O)N3CCC(C(=O)Nc4cc(C)cc(C)c4)CC3)cc21	-16.2
O=C(OCc1cc(Cl)ccc1OC(F)F)c1cncc(Br)c1	5.33
COc1ccccc1NC(=O)CSc1nc(SC)ns1	-14.5
CC(=O)Nc1ccc(N(C(=O)c2ccco2)C(C(=O)NC2CCCC2)c2ccc(N3CCOCC3)cc2)cc1 (centres unmarked)	10.8
CCCc1cc(=O)oc2cc(OCC(=O)NCCCN3CCOCC3)ccc12	-17.9

Structure (SMILES)	hERG current change (%, negative = inhibition) at 10uM [%]
COc1cc(Cl)c(C)cc1NC(=O)CSc1ccccc1	5.58
CCOC(=O)C1C(=O)CC(=O)CC1CC(C)SCC (centres unmarked)	19.7
O=C(Cn1c(=O)sc2ccccc21)Nc1ccc(S(=O)(=O)N2CCCC2)cc1	-3.11
Cl.O=[N+]([O-])c1cc(S(=O)(=O)NCCCN2CCOCC2)ccc1Cl	-10.2
CCCCn1c(SCC(=O)NC2CCCC2)nc2ccccc2c1=O	-4.43
O=C(c1ccc(CN2CCOCC2)cc1)N1CCN(c2ccccc2)CC1	3.02
Cc1ccc(N2C(=O)[C@@H]3[C@H](C2=O)[C@H]2C=CC=NN2[C@@H]3C(=O)Nc2ccccc2)cc1	7.5
COc1ccc(NC(=O)CSc2nc3ccccc3nc2N2CCCC2)cc1	-0.542
CN1CCN(C(=S)Nc2cccc(Cl)c2)CC1	1.82
O=C(NC(=S)N1CCN(c2ccc(Cl)cc2[N+](=O)[O-])CC1)c1cccs1	-30
COC(=O)CCCC1=CC2=CC(=O)C(C)(OC(=O)c3cccs3)C(=O)C2=CN1CC1CC1 (centres unmarked)	9.4
Cc1cccc(N2C(=S)N=C(Nc3c(C)cccc3C)C23CCOC(C)(C)C3)c1 (centres unmarked)	25.7
Nc1ccc(S(=O)(=O)NNC(=O)C(=O)NNc2ccccc2)cc1	3.21
O=C(Nc1c[nH]c(=O)[nH]c1=O)c1cccc(F)c1	7.17
Cc1nn(Cc2ccccc2)c(Cl)c1C(=O)OC(C)C(=O)Nc1ccc(F)cc1Cl (centres unmarked)	11.2
O=C(Cn1c(=O)n(CC2CCCO2)c(=O)c2ccccc21)c1ccccc1 (centres unmarked)	4.49
O=C(c1ccccc1F)N1CCCC(C(=O)N2CCc3ccccc3C2)C1 (centres unmarked)	-8.64
Cc1cccc(C)c1NC(=O)N1C2CCC1CC(O)(c1cccnc1)C2 (centres unmarked)	20.2
COc1ccc(C(=O)NN2CCCCC2)cc1OC	4.62
Nc1nn(-c2ccccc2)c(N)c1N=Nc1ccccc1	-16.4
CCOC(=O)CSc1nnc(NCC(=O)OC)c(=O)[nH]1	25.5
Br.CN(C)CCNc1cc(-c2ccncc2)nc2ccccc12	-22.3
